{"source": "PubChem BioAssay AID588855", "about": "(National Center for Advancing Translational Sciences (NCATS), 2011)", "note": "Hit rate of the full screen: of about 410,000 compounds, about 5,000 (1.2%) were called active. Inconclusive means that the source gave no clear call. Such entries were picked first, then a sample of the others. Calls follow the shape of the dose curve; as a rule, active = well fitted inhibition curve with a large enough effect; inconclusive = small, poorly fitted or top-dose-only effect; inactive = no such curve, though single readings can be large or run the other way. Potencies beside an inconclusive call are fits to weak or partial responses and may not hold up. % is scaled to controls: 0 for no effect and ±100 for the full control effect; potency is read from the fitted curve at half-maximal effect; tags tell the direction and shape of the fitted curve."}
{"test": "qHTS for Inhibitors of TGF-b; also: nearly all actives have a fitted effect of over 65% in size", "conditions": "HepG2 CAGA-GFP TGF-b/SMAD3 reporter, GFP fluorescence, 18 h, TGF-beta stimulated, 500 pg/mL final; series mostly up to 46.1 µM; activity, negative = inhibition: at the top concentration", "procedure,_shortened": "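Smad-responsive CAGA-GFP expression was quantified in HEPG2 cells exposed to compounds and 500 pg/mL final TGF-beta for 18 h at 37 degrees C; unstimulated wells defined full inhibition.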"}
{"smiles": "COc1cccc2c1C(=O)c1c(O)c3c(c(O)c1C2=O)C[C@@](O)(C(=O)CO)C[C@@H]3O[C@H]1C[C@H](N)[C@H](O)[C@H](C)O1", "Potency": "active: 3.55 µM"}
{"smiles": "O=C(CSc1ccc([N+](=O)[O-])cc1)c1ccccc1", "Potency": "inconclusive: 5.62 µM [inhibitor, full curve]"}
{"smiles": "COc1ccc(OC)c(/C=C/C(=O)N2C(=O)c3cccc(N)c3C2=O)c1", "Potency": "inconclusive: 4.47 µM [inhibitor, full curve]"}
{"smiles": "O=C(COc1ccc(Cl)cc1Cl)NCCC1=CCCCC1", "Potency": "inconclusive: 15.8 µM [inhibitor, single point]"}
{"smiles": "COc1ccc(Cl)cc1NC(=O)CN1C(=O)CC(C)S(=O)(=O)c2ccccc21", "note": "(configuration not stated)", "Potency": "inconclusive: 12.6 µM [inhibitor, partial curve, poor fit]"}
{"smiles": "CCN(CC(O)Cn1c2ccccc2c2ccccc21)S(=O)(=O)c1ccc(F)cc1", "note": "(configuration not stated)", "Potency": "inconclusive: 22.4 µM [inhibitor, single point]"}
{"smiles": "CCCCCCn1c2c(c(=N)c3c1CCC3)CCC2", "Potency": "inconclusive: 14.1 µM [inhibitor, partial curve, poor fit]"}
{"smiles": "Cc1nc2c3ccccc3nc(NNC(=O)CCC(=O)N3CCN(c4cccc(Cl)c4)CC3)n2n1", "Potency": "inconclusive: 22.4 µM [inhibitor, single point]"}
{"smiles": "O=[N+]([O-])c1cc2no[n+]([O-])c2cc1N1CCCCC1", "Potency": "active: 2.82 µM"}
{"smiles": "Cc1ccc(S(=O)(=O)NCC(=O)N(CC(=O)NC(C)(C)C)Cc2cccs2)cc1", "Potency": "inconclusive: 0.708 µM [inhibitor, partial curve, poor fit]"}
{"smiles": "Oc1ccc(C[C@H]2CNC(=S)N2CC2CCCN2C[C@H](Cc2ccc(O)cc2)N2C[C@H](Cc3ccc(O)cc3)N(CC3CCCCCC3)C2=S)cc1", "note": "(some centres not stated)", "Potency": "active: 7.94 µM"}
{"smiles": "CCOc1ccc(/C=C/C(=O)OCC(=O)NCCc2ccc(OCC)c(OCC)c2)cc1OC", "activity, negative = inhibition": "inactive: -19.6%"}
{"smiles": "Cc1ccc(NC(=O)CSc2nc3ccc(Br)cc3[nH]2)c(C)c1", "Potency": "inconclusive: 35.5 µM [inhibitor, single point]"}
{"smiles": "COc1cc(NC(=O)CN2CCCCC2)c(C)cc1[N+](=O)[O-]", "Potency": "inconclusive: 12.6 µM [inhibitor, partial curve, poor fit]"}
{"smiles": "Cc1ccc(N2CC(C(=O)NCCS(=O)(=O)N3CCN(c4ccccc4F)CC3)CC2=O)cc1", "note": "(configuration not stated)", "Potency": "inconclusive: 6.31 µM [inhibitor, full curve]"}
{"smiles": "COc1ccc(/C=N/NC(=O)Cc2csc(Nc3cccc(C(F)(F)F)c3)n2)cc1C", "Potency": "inconclusive: 35.5 µM [inhibitor, single point]"}
{"smiles": "CC(=O)c1cccc(N=C2NC(=O)C(CO)(CO)S2)c1", "Potency": "inconclusive: 35.5 µM [inhibitor, partial curve, poor fit]"}
{"smiles": "Cc1c(CCOC(=O)CC23CC4CC(CC(C4)C2)C3)sc[n+]1CC(=O)c1ccc(Br)cc1", "Potency": "inconclusive: 35.5 µM [inhibitor, single point]"}
{"smiles": "COC(=O)c1ccc(COc2ccccc2/C=C(\\C#N)C(=O)Nc2c(C)cccc2C)cc1", "Potency": "inconclusive: 25.1 µM [inhibitor, single point]"}
{"smiles": "COc1ccc(S(=O)(=O)N(C)[C@H]2C[C@H]3c4cc(Oc5ccccc5C)ccc4CCN3C(=O)[C@H]2[C@H](C)O)cc1", "Potency": "inconclusive: 10 µM [inhibitor, partial curve, poor fit]"}
{"smiles": "CC(C)(C)c1cc(C(=O)N/N=C/c2ccc([N+](=O)[O-])s2)n[nH]1", "Potency": "inconclusive: 12.6 µM [inhibitor, partial curve, poor fit]"}
{"smiles": "CCCCCCNC(=O)O[C@H]1Cn2c(=O)ccc(=O)n2[C@@H]2CN(S(=O)(=O)c3ccc(C)cc3)C[C@]12O", "Potency": "inconclusive: 35.5 µM [inhibitor, single point]"}
{"smiles": "CCS(=O)(=O)N1CCc2cc(C(=O)N3CCN(c4ccc(OC)cc4)CC3)ccc21", "Potency": "inconclusive: 12.6 µM [inhibitor, partial curve, poor fit]"}
{"smiles": "COc1ccc(-c2nc(SCC(=O)Nc3ccccc3)c(-c3ccc(F)cc3)[nH]2)cc1OC", "Potency": "inconclusive: 17.8 µM [inhibitor, single point]"}
{"smiles": "CCc1ccc(C2CC(=O)c3c([nH]c(C(=O)OC4CCC(C)CC4)c3C)C2)cc1", "note": "(configuration not stated)", "activity, negative = inhibition": "inactive: 13.8%"}
{"smiles": "Cc1ccc(S(=O)(=O)N2CCOCC2)cc1NC(=O)CSc1nc(N)cc(N)n1", "Potency": "inconclusive: 3.16 µM [inhibitor, single point]"}
{"smiles": "COc1ccc(S(=O)(=O)NCc2cccn2Cc2cccc(C)c2)cc1Cl", "Potency": "inconclusive: 20 µM [inhibitor, single point]"}
{"smiles": "CCOc1cccc(C2C=C(c3ccc4c(c3)OCO4)NC(c3ccccc3Cl)N2)c1O", "note": "(configuration not stated)", "Potency": "inconclusive: 10 µM [inhibitor, partial curve, poor fit]"}
{"smiles": "Cc1cccc(CSc2nc3c(c(=O)[nH]2)CCC3)c1", "Potency": "inconclusive: 0.501 µM [inhibitor, partial curve, poor fit]"}
{"smiles": "Cc1cc(C)c(O)c(-c2cc(C(=O)NCc3ccccc3)[nH]n2)c1", "Potency": "inconclusive: 22.4 µM [inhibitor, single point]"}
{"smiles": "CCOC(=O)c1cccc(NC(=O)CN2C(=O)C3C4C=CC(C4)C3C2=O)c1", "note": "(configuration not stated)", "activity, negative = inhibition": "inactive: -1.38%"}
{"smiles": "C=CC(C)(C)O[C@@H]1O[C@H](CO)[C@@H](O)[C@H](O)[C@H]1O", "Potency": "inconclusive: 1 µM [inhibitor, full curve, poor fit]"}
{"smiles": "Cc1ccc(C(=O)N2CCN(CCNC(=O)C(=O)NCc3ccc(Cl)cc3)CC2)cc1", "activity, negative = inhibition": "inactive: -9.02%"}
{"smiles": "CCOC(=O)N/N=C\\c1ccccc1OC/C=C/c1ccccc1", "activity, negative = inhibition": "inactive: -4.56%"}
{"smiles": "CCOc1ccccc1C(=O)Oc1c(S(=O)(=O)c2ccc(C)cc2)c(C)nn1-c1ccccc1", "Potency": "inconclusive: 17.8 µM [inhibitor, single point]"}
{"smiles": "O=C(NCC1COc2ccccc2O1)c1ccc(Cl)c(S(=O)(=O)N2CCOCC2)c1", "note": "(configuration not stated)", "Potency": "inconclusive: 35.5 µM [inhibitor, single point]"}
{"smiles": "Cn1c(=O)c2c(nc(Oc3ccccc3)n2C)n(C)c1=O", "Potency": "inconclusive: 0.112 µM [inhibitor, full curve, poor fit]"}
{"smiles": "Cc1c(CCOC(=O)c2ccc(N3CCOCC3)c([N+](=O)[O-])c2)sc[n+]1CC#N", "Potency": "inconclusive: 35.5 µM [inhibitor, single point]"}
{"smiles": "COC(=O)[C@@]1(Cc2ccc(OC)cc2)[C@H]2c3cc(C(=O)N4CCCC4)n(Cc4c(CO)[nH]cc(C)c4=O)c3C[C@H]2CN1C(=O)c1ccccc1", "Potency": "inconclusive: 1.12 µM [inhibitor, full curve]"}
{"smiles": "Cc1ccc(SCC(=O)Nc2ccc(S(=O)(=O)Nc3nccs3)cc2)cc1", "activity, negative = inhibition": "inactive: 10.1%"}
{"smiles": "COc1cc2c(c(OC)c1OC)-c1c(cc3c(c1O)OCO3)C[C@@H](C)[C@@H](C)C2", "Potency": "inconclusive: 14.1 µM [inhibitor, single point]"}
{"smiles": "Cc1ccccc1CN1CCc2nc(N3CCN(c4ncccn4)CC3)ncc2C1", "Potency": "inconclusive: 11.2 µM [inhibitor, partial curve, poor fit]"}
{"smiles": "COc1ccc(CCCc2nnc(SCC(=O)Nc3cccc(C)c3)o2)cc1C", "Potency": "inconclusive: 35.5 µM [inhibitor, single point]"}
{"smiles": "C=CCNC(=S)/N=c1/ccccn1CCC", "Potency": "inconclusive: 7.08 µM [inhibitor, full curve]"}
{"smiles": "CC(=O)OCC(=O)Nc1ccc(SC(F)F)cc1", "activity, negative = inhibition": "inactive: -8.11%"}
{"smiles": "O=C(Cn1c(=O)n(-c2ccccc2)c(=O)c2ccc(C(=O)NCc3ccc4c(c3)OCO4)cc21)Nc1ccc(F)cc1", "activity, negative = inhibition": "inactive: 6.3%"}
{"smiles": "Cc1ccc(S(=O)(=O)NCc2ccccc2)cc1C(=O)N1CCCCCCC1", "activity, negative = inhibition": "inactive: -18.9%"}
{"smiles": "CCCn1c(SC(C)C(=O)O)nc2ccccc21", "note": "(configuration not stated)", "Potency": "inconclusive: 35.5 µM [inhibitor, single point]"}
{"smiles": "CCCCN(CC)Cc1c(O)ccc2c(-c3ccccc3)cc(=O)oc12", "Potency": "inconclusive: 3.16 µM [inhibitor, single point]"}
{"smiles": "N#CSCC(=O)c1cccc2ccccc12", "Potency": "inconclusive: 7.08 µM [inhibitor, partial curve, poor fit]"}
{"smiles": "CC(=O)Nc1ccc(C=CC=Cc2cccc([N+](=O)[O-])c2)cc1", "Potency": "inconclusive: 17.8 µM [inhibitor, single point]"}
{"smiles": "O=C(Nc1ccc(Cl)cc1)C1C2CCC3C(CCC21)C3(Cl)Cl", "note": "(configuration not stated)", "Potency": "inconclusive: 35.5 µM [inhibitor, single point]"}
{"smiles": "COc1ccc(/C=C2\\COc3ccccc3C2=O)cc1OC", "Potency": "active: 15.8 µM"}
{"smiles": "O=C(CN1C(=O)NC2(CCCCC2)C1=O)Nc1cccc(S(=O)(=O)N2CCCC2)c1", "activity, negative = inhibition": "inactive: 0.789%"}
{"smiles": "COC(=O)\\C(C(C)=O)=C(/C=C/C=C/N(C)C)N(C)C", "activity, negative = inhibition": "inactive: -16.3%"}
{"smiles": "C(=C\\c1ccccc1)/CN1CCN(C(c2cc3ccccc3o2)c2nnnn2-c2ccc3c(c2)OCCO3)CC1", "note": "(configuration not stated)", "activity, negative = inhibition": "inactive: -13.2%"}
{"smiles": "Cc1cc(N2CCN(c3ccccc3)CC2)nc(-n2nc(C)cc2C)n1", "Potency": "inconclusive: 10 µM [inhibitor, partial curve]"}
{"smiles": "CC(C)n1nnc(-c2ccc(OCc3ccccc3F)cc2)n1", "activity, negative = inhibition": "inactive: -12.2%"}
{"smiles": "COc1ccc(CNC(=O)C[C@H]2C[C@H](C(=O)N3CCOCC3)[C@@]3(CCC4CCCC4)c4[nH]c5cc(CCC(=O)N(C)C)ccc5c4CCN3C2=O)cc1OC", "activity, negative = inhibition": "inactive: -20.7%"}
{"smiles": "O=C(COc1ccc(Br)cc1)NNC(=S)NCc1ccccc1", "Potency": "inconclusive: 17.8 µM [inhibitor, single point]"}
{"smiles": "O=C(Cn1[nH]c(=O)c2ccccc2c1=O)NCCN1C(=O)S/C(=C\\c2ccccc2)C1=O", "Potency": "inconclusive: 35.5 µM [inhibitor, single point]"}
{"smiles": "Cc1nnc(SCCn2c(N3CC(C)CC(C)C3)nc3c2c(=O)[nH]c(=O)n3C)s1", "note": "(configuration not stated)", "Potency": "inconclusive: 12.6 µM [inhibitor, single point]"}
